Laboratory results published in PubChem BioAssay (Tox21).
Values joined by “and” are separate entries in the source; they are usually repeats but may differ in a detail not shown here. Identical values can stand only once. The shares of active, inactive and inconclusive entries below differ from those in the screen. A potency beside an inconclusive call is a rough fit, not a confirmed value. Some compounds were tested as several samples or in several runs, with calls that do not always agree. Active and inactive are the calls of the source. The call rests on the fitted dose curve; in most records, active means well fitted activation curve with a large enough effect in the repeat runs; inconclusive means weak or mixed curves; inactive means flat fitted curve, though single readings scatter.

Experiment: A CellTox Green Cytotoxicity Assay to monitor cytotoxicity in HepG2 cells - 32 hour (AID 1224883); further: nearly all actives have a fitted effect of over 50% in size
Settings: CellTox Green fluorescence; series mostly up to 76.8 µM
Method in brief: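 Using 1536-well format, dye-containing HepG2 suspension was seeded, allowed 5 h at 37 C/5% CO2, dosed by pintool with compounds, positive and negative controls, and imaged for fluorescence across 40 h.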
Potency means the concentration at half of the fitted maximal effect; tags describe the fitted curve by direction and shape.

Row | SMILES | Potency
1 | CCCCCc1ccc(N)cc1 | active: 49 µM
2 | OCc1c[nH]c2ccccc12 | inconclusive: 61.6 µM [activator, partial curve, poor fit]
3 | O=C1NCCN1CCN1CCC(c2cn(-c3ccc(F)cc3)c3ccc(Cl)cc23)CC1 | active: 26.8 µM
4 | COc1ccc(C(=O)CC(=O)c2ccc(C(C)(C)C)cc2)cc1 | active: 0.0674 µM
5 | CC(Cc1cccc(C(F)(F)F)c1)NCCOC(=O)c1ccccc1 (configuration not stated) | inconclusive: 23.9 µM [activator, single point]
6 | CC/C=C\CCOC(=O)c1ccccc1 | inconclusive: 34.7 µM [activator, partial curve, poor fit]
7 | CCCC1O[C@@H]2C[C@H]3[C@@H]4CCC5=CC(=O)C=C[C@]5(C)[C@H]4[C@@H](O)C[C@]3(C)[C@]2(C(=O)CO)O1 (some centres not stated) | inconclusive: 49 µM [activator, single point]
8 | C=CC(=O)OCC(CO)(COC(=O)C=C)COC(=O)C=C | inconclusive: 13.8 µM [activator, single point]
9 | O=Cc1cc(O)ccc1Br | inconclusive: 55.7 µM [activator, single point]
10 | Nc1c2ccccc2nc2ccccc12 | active: 12.1 µM and active: 10.7 µM
11 | C#C[C@]1(O)CC[C@H]2[C@@H]3CCc4cc(OC)ccc4[C@H]3CC[C@@]21C | inconclusive: 54.9 µM [activator, single point] and active: 23.9 µM
12 | C=CC(=O)OCCCCCCOC(=O)C=C | inconclusive: 54.9 µM [activator, single point]
